Data: paper PMC12820563, “FoxP3 forms a head-to-head dimer in vivo and stabilizes its multimerization on adjacent microsatellites”
The other results are listed elsewhere or left out.

Each sequence was assayed against T1, MBP-FoxP1dN (Mus musculus, UniProt P58462 326-579) (assay: PD-seq (MBP pull-down with sequencing); 20 mM Tris-HCl pH 7.5, 100 mM NaCl, 1.5 mM MgCl2, 0.4 uM protein, 0.1 uM dsDNA library, 30 min, room temperature, amylose pull-down; high values mean tight binding). Conditions: protein: recombinant; tags: His6-MBP; chain copies: 2; dsDNA, one strand shown.
T1 sequence: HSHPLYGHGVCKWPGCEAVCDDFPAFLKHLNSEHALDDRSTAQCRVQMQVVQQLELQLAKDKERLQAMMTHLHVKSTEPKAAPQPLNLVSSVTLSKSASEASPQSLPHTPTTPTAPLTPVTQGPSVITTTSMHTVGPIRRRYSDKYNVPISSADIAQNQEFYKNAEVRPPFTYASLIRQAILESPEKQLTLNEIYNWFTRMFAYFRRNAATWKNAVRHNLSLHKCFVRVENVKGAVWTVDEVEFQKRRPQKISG
Summary of the method: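 E. coli-expressed mouse FoxP3 or FoxP1 fragment, N-terminus removed and tagged with His6-MBP, was used at 0.4 µM against 0.1 µM of a Klenow-filled degenerate double-stranded DNA library. After 30 min at room temperature in Tris pH 7.5 buffer with NaCl and MgCl2, complexes were pulled down on amylose resin and washed three times. Binding is pull-down over input reads-per-million enrichment from pooled replicates of the proteinase K-released, PCR-barcoded, Illumina-sequenced DNA.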

| Sequence | binding signal |
| --- | --- |
| GATGATTGTTCTCCCAGCTGATGAATTTGCGTGTTCGAGTAAACAAATTTTCCTAATCTTTCTGTTCAAGCGCCATCTAC | 1.2 RPM ratio (pull-down/input) |
| GATGATTGTTCTCCCAGCTGATGAATTTTTTCGCTCGAGTAAACAAATTTTCCTAATCTTTCTGTTCAAGCGCCATCTAC | 0.942 RPM ratio (pull-down/input) |
| GATGATTGTTCTCCCAGCTGATGAATTTTTGAGATCGAGTAAACAAATTTTCCTAATCTTTCTGTTCAAGCGCCATCTAC | 0.928 RPM ratio (pull-down/input) |
| GATGATTGTTCTCCCAGCTGATGAATTCGATGCATCGAGTAAACAAATTTTCCTAATCTTTCTGTTCAAGCGCCATCTAC | 1.23 RPM ratio (pull-down/input) |
| GATGATTGTTCTCCCAGCTGATGAATTTCAACAGTCGAGTAAACAAATTTTCCTAATCTTTCTGTTCAAGCGCCATCTAC | 0.922 RPM ratio (pull-down/input) |
| GATGATTGTTCTCCCAGCTGATGAATTCACTTCGTCGAGTAAACAAATTTTCCTAATCTTTCTGTTCAAGCGCCATCTAC | 0.914 RPM ratio (pull-down/input) |
| GATGATTGTTCTCCCAGCTGATGAATTGCGTGTCTCGAGTAAACAAATTTTCCTAATCTTTCTGTTCAAGCGCCATCTAC | 0.98 RPM ratio (pull-down/input) |
| GATGATTGTTCTCCCAGCTGATGAATTCAATAAGTCGAGTAAACAAATTTTCCTAATCTTTCTGTTCAAGCGCCATCTAC | 0.939 RPM ratio (pull-down/input) |
| GATGATTGTTCTCCCAGCTGATGAATTCGGCCTTTCGAGTAAACAAATTTTCCTAATCTTTCTGTTCAAGCGCCATCTAC | 0.797 RPM ratio (pull-down/input) |
| GATGATTGTTCTCCCAGCTGATGAATTATCAGGGTCGAGTAAACAAATTTTCCTAATCTTTCTGTTCAAGCGCCATCTAC | 0.82 RPM ratio (pull-down/input) |
| GATGATTGTTCTCCCAGCTGATGAATTTGGCTGTTCGAGTAAACAAATTTTCCTAATCTTTCTGTTCAAGCGCCATCTAC | 0.894 RPM ratio (pull-down/input) |
| GATGATTGTTCTCCCAGCTGATGAATTAAATTCCTCGAGTAAACAAATTTTCCTAATCTTTCTGTTCAAGCGCCATCTAC | 0.884 RPM ratio (pull-down/input) |
| GATGATTGTTCTCCCAGCTGATGAATTATGAACGTCGAGTAAACAAATTTTCCTAATCTTTCTGTTCAAGCGCCATCTAC | 1.02 RPM ratio (pull-down/input) |
| GATGATTGTTCTCCCAGCTGATGAATTCCGCCGCTCGAGTAAACAAATTTTCCTAATCTTTCTGTTCAAGCGCCATCTAC | 0.747 RPM ratio (pull-down/input) |
| GATGATTGTTCTCCCAGCTGATGAATTTTACCACTCGAGTAAACAAATTTTCCTAATCTTTCTGTTCAAGCGCCATCTAC | 0.85 RPM ratio (pull-down/input) |
| GATGATTGTTCTCCCAGCTGATGAATTGTTGAAGTCGAGTAAACAAATTTTCCTAATCTTTCTGTTCAAGCGCCATCTAC | 1.06 RPM ratio (pull-down/input) |
| GATGATTGTTCTCCCAGCTGATGAATTCGCACTTTCGAGTAAACAAATTTTCCTAATCTTTCTGTTCAAGCGCCATCTAC | 0.852 RPM ratio (pull-down/input) |
| GATGATTGTTCTCCCAGCTGATGAATTTTCTGTCTCGAGTAAACAAATTTTCCTAATCTTTCTGTTCAAGCGCCATCTAC | 0.87 RPM ratio (pull-down/input) |
| GATGATTGTTCTCCCAGCTGATGAATTAACGAACTCGAGTAAACAAATTTTCCTAATCTTTCTGTTCAAGCGCCATCTAC | 0.842 RPM ratio (pull-down/input) |
| GATGATTGTTCTCCCAGCTGATGAATTGCGGTAGTCGAGTAAACAAATTTTCCTAATCTTTCTGTTCAAGCGCCATCTAC | 1.05 RPM ratio (pull-down/input) |
| GATGATTGTTCTCCCAGCTGATGAATTAGTCACTTCGAGTAAACAAATTTTCCTAATCTTTCTGTTCAAGCGCCATCTAC | 0.984 RPM ratio (pull-down/input) |

| Sequence | binding signal |
| --- | --- |
| GATGATTGTTCTCCCAGCTGATGAATTTAAGTGATCGAGTAAACAAATTTTCCTAATCTTTCTGTTCAAGCGCCATCTAC | 0.94 RPM ratio (pull-down/input) |
| GATGATTGTTCTCCCAGCTGATGAATTCCACGTATCGAGTAAACAAATTTTCCTAATCTTTCTGTTCAAGCGCCATCTAC | 0.905 RPM ratio (pull-down/input) |
| GATGATTGTTCTCCCAGCTGATGAATTAGAAGGATCGAGTAAACAAATTTTCCTAATCTTTCTGTTCAAGCGCCATCTAC | 0.893 RPM ratio (pull-down/input) |
| GATGATTGTTCTCCCAGCTGATGAATTCTGACAGTCGAGTAAACAAATTTTCCTAATCTTTCTGTTCAAGCGCCATCTAC | 0.865 RPM ratio (pull-down/input) |
| GATGATTGTTCTCCCAGCTGATGAATTCCATATTTCGAGTAAACAAATTTTCCTAATCTTTCTGTTCAAGCGCCATCTAC | 0.948 RPM ratio (pull-down/input) |
| GATGATTGTTCTCCCAGCTGATGAATTTTTATTATCGAGTAAACAAATTTTCCTAATCTTTCTGTTCAAGCGCCATCTAC | 2.02 RPM ratio (pull-down/input) |
| GATGATTGTTCTCCCAGCTGATGAATTTTGCCGGTCGAGTAAACAAATTTTCCTAATCTTTCTGTTCAAGCGCCATCTAC | 0.746 RPM ratio (pull-down/input) |
| GATGATTGTTCTCCCAGCTGATGAATTGACCCAATCGAGTAAACAAATTTTCCTAATCTTTCTGTTCAAGCGCCATCTAC | 1.06 RPM ratio (pull-down/input) |
| GATGATTGTTCTCCCAGCTGATGAATTTAGAGCCTCGAGTAAACAAATTTTCCTAATCTTTCTGTTCAAGCGCCATCTAC | 0.87 RPM ratio (pull-down/input) |
| GATGATTGTTCTCCCAGCTGATGAATTTCAAGCCTCGAGTAAACAAATTTTCCTAATCTTTCTGTTCAAGCGCCATCTAC | 0.827 RPM ratio (pull-down/input) |
| GATGATTGTTCTCCCAGCTGATGAATTCGGGAACTCGAGTAAACAAATTTTCCTAATCTTTCTGTTCAAGCGCCATCTAC | 0.774 RPM ratio (pull-down/input) |
| GATGATTGTTCTCCCAGCTGATGAATTCGGTCAGTCGAGTAAACAAATTTTCCTAATCTTTCTGTTCAAGCGCCATCTAC | 0.816 RPM ratio (pull-down/input) |
| GATGATTGTTCTCCCAGCTGATGAATTTCGATACTCGAGTAAACAAATTTTCCTAATCTTTCTGTTCAAGCGCCATCTAC | 0.916 RPM ratio (pull-down/input) |
| GATGATTGTTCTCCCAGCTGATGAATTCCCACCGTCGAGTAAACAAATTTTCCTAATCTTTCTGTTCAAGCGCCATCTAC | 0.829 RPM ratio (pull-down/input) |
| GATGATTGTTCTCCCAGCTGATGAATTAAAAAACTCGAGTAAACAAATTTTCCTAATCTTTCTGTTCAAGCGCCATCTAC | 0.953 RPM ratio (pull-down/input) |
| GATGATTGTTCTCCCAGCTGATGAATTGTCTTAATCGAGTAAACAAATTTTCCTAATCTTTCTGTTCAAGCGCCATCTAC | 1.13 RPM ratio (pull-down/input) |
| GATGATTGTTCTCCCAGCTGATGAATTGCACTGATCGAGTAAACAAATTTTCCTAATCTTTCTGTTCAAGCGCCATCTAC | 1.08 RPM ratio (pull-down/input) |
| GATGATTGTTCTCCCAGCTGATGAATTTTCACAATCGAGTAAACAAATTTTCCTAATCTTTCTGTTCAAGCGCCATCTAC | 1.29 RPM ratio (pull-down/input) |
| GATGATTGTTCTCCCAGCTGATGAATTGAAGCTTTCGAGTAAACAAATTTTCCTAATCTTTCTGTTCAAGCGCCATCTAC | 0.876 RPM ratio (pull-down/input) |
| GATGATTGTTCTCCCAGCTGATGAATTGTGTGCGTCGAGTAAACAAATTTTCCTAATCTTTCTGTTCAAGCGCCATCTAC | 1.22 RPM ratio (pull-down/input) |
| GATGATTGTTCTCCCAGCTGATGAATTTTCGGGCTCGAGTAAACAAATTTTCCTAATCTTTCTGTTCAAGCGCCATCTAC | 0.781 RPM ratio (pull-down/input) |

| Sequence | binding signal |
| --- | --- |
| GATGATTGTTCTCCCAGCTGATGAATTGAAGAACTCGAGTAAACAAATTTTCCTAATCTTTCTGTTCAAGCGCCATCTAC | 0.822 RPM ratio (pull-down/input) |
| GATGATTGTTCTCCCAGCTGATGAATTTGAACGTTCGAGTAAACAAATTTTCCTAATCTTTCTGTTCAAGCGCCATCTAC | 0.841 RPM ratio (pull-down/input) |
| GATGATTGTTCTCCCAGCTGATGAATTGGGTTATTCGAGTAAACAAATTTTCCTAATCTTTCTGTTCAAGCGCCATCTAC | 0.925 RPM ratio (pull-down/input) |
| GATGATTGTTCTCCCAGCTGATGAATTGCCTACGTCGAGTAAACAAATTTTCCTAATCTTTCTGTTCAAGCGCCATCTAC | 0.991 RPM ratio (pull-down/input) |
| GATGATTGTTCTCCCAGCTGATGAATTAGGTAGGTCGAGTAAACAAATTTTCCTAATCTTTCTGTTCAAGCGCCATCTAC | 0.851 RPM ratio (pull-down/input) |
| GATGATTGTTCTCCCAGCTGATGAATTTTGTGTATCGAGTAAACAAATTTTCCTAATCTTTCTGTTCAAGCGCCATCTAC | 2.15 RPM ratio (pull-down/input) |
| GATGATTGTTCTCCCAGCTGATGAATTTCAAGGGTCGAGTAAACAAATTTTCCTAATCTTTCTGTTCAAGCGCCATCTAC | 0.748 RPM ratio (pull-down/input) |
| GATGATTGTTCTCCCAGCTGATGAATTAACTGATTCGAGTAAACAAATTTTCCTAATCTTTCTGTTCAAGCGCCATCTAC | 0.953 RPM ratio (pull-down/input) |
| GATGATTGTTCTCCCAGCTGATGAATTATGTCTTTCGAGTAAACAAATTTTCCTAATCTTTCTGTTCAAGCGCCATCTAC | 1.06 RPM ratio (pull-down/input) |
| GATGATTGTTCTCCCAGCTGATGAATTGCATACCTCGAGTAAACAAATTTTCCTAATCTTTCTGTTCAAGCGCCATCTAC | 1.12 RPM ratio (pull-down/input) |
| GATGATTGTTCTCCCAGCTGATGAATTTATCACCTCGAGTAAACAAATTTTCCTAATCTTTCTGTTCAAGCGCCATCTAC | 1.03 RPM ratio (pull-down/input) |
| GATGATTGTTCTCCCAGCTGATGAATTGCCAAGCTCGAGTAAACAAATTTTCCTAATCTTTCTGTTCAAGCGCCATCTAC | 0.899 RPM ratio (pull-down/input) |
| GATGATTGTTCTCCCAGCTGATGAATTCCGTAGTTCGAGTAAACAAATTTTCCTAATCTTTCTGTTCAAGCGCCATCTAC | 0.834 RPM ratio (pull-down/input) |
| GATGATTGTTCTCCCAGCTGATGAATTTCGGGGTTCGAGTAAACAAATTTTCCTAATCTTTCTGTTCAAGCGCCATCTAC | 0.791 RPM ratio (pull-down/input) |
| GATGATTGTTCTCCCAGCTGATGAATTAACGAAGTCGAGTAAACAAATTTTCCTAATCTTTCTGTTCAAGCGCCATCTAC | 0.89 RPM ratio (pull-down/input) |
| GATGATTGTTCTCCCAGCTGATGAATTATTTTCATCGAGTAAACAAATTTTCCTAATCTTTCTGTTCAAGCGCCATCTAC | 1.27 RPM ratio (pull-down/input) |
| GATGATTGTTCTCCCAGCTGATGAATTCCCTAAATCGAGTAAACAAATTTTCCTAATCTTTCTGTTCAAGCGCCATCTAC | 1.05 RPM ratio (pull-down/input) |
| GATGATTGTTCTCCCAGCTGATGAATTTTCGATATCGAGTAAACAAATTTTCCTAATCTTTCTGTTCAAGCGCCATCTAC | 0.979 RPM ratio (pull-down/input) |
| GATGATTGTTCTCCCAGCTGATGAATTATTCCGTTCGAGTAAACAAATTTTCCTAATCTTTCTGTTCAAGCGCCATCTAC | 1.07 RPM ratio (pull-down/input) |
| GATGATTGTTCTCCCAGCTGATGAATTAAACGATTCGAGTAAACAAATTTTCCTAATCTTTCTGTTCAAGCGCCATCTAC | 0.876 RPM ratio (pull-down/input) |
| GATGATTGTTCTCCCAGCTGATGAATTGCTAGTATCGAGTAAACAAATTTTCCTAATCTTTCTGTTCAAGCGCCATCTAC | 1.18 RPM ratio (pull-down/input) |
